# Experimental data published in publication PMC4336329 (PLoS ONE, 2015).
# The whole screen tested about 310,000 compounds, of which about 14,000 (4.5%) showed an effect of 50% or more. Effects have a minus sign here. The list shows a part of the results.
# Biological target: human ether-à-go-go-related gene (hERG) potassium channel (human, UniProt Q12809)
# Assay: primary screen, population patch clamp on CHO cells stably expressing hERG
# 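Note: peak tail current of the secondary pulse compared with the same well before compound.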
# Sequence of human ether-à-go-go-related gene (hERG) potassium channel (Q12809 whole entry, looked up): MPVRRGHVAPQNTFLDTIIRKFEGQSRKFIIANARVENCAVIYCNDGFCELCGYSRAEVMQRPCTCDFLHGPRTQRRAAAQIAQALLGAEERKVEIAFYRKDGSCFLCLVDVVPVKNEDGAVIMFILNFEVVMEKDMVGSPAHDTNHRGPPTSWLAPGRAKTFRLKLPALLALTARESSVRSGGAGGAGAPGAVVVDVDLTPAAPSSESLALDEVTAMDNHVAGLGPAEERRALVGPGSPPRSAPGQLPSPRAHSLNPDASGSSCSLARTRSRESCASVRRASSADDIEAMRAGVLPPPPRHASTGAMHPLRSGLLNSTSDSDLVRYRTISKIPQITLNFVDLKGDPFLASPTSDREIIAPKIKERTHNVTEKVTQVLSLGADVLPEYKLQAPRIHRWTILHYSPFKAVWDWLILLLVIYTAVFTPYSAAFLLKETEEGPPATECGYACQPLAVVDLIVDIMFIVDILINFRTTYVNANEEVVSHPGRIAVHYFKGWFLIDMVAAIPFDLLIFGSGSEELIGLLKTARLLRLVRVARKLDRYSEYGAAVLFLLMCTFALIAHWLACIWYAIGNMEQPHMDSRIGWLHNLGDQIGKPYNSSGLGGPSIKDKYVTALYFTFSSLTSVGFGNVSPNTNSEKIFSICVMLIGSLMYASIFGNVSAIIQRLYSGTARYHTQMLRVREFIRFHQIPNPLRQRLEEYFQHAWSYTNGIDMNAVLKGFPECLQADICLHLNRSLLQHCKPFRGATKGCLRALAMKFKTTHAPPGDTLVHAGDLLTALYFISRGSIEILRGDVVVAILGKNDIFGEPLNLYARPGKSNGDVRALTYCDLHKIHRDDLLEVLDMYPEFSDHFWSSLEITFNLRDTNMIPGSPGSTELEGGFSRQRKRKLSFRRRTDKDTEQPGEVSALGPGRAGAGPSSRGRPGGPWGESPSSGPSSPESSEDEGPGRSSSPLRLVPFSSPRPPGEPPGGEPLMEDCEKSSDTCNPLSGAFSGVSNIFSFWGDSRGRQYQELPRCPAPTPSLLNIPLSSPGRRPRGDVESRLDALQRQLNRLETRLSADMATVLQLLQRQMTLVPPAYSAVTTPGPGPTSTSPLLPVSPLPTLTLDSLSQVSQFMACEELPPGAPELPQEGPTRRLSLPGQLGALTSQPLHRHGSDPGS
row,SMILES,"hERG current change (%, negative = inhibition) at 10uM [%]"
1,CCOc1ccc2nc(NC(=O)CN3CCOCC3)sc2c1,-34.5
2,CN(C)S(=O)(=O)c1ccc(C(=O)NNC(=O)c2ccccc2-n2cccc2)cc1,-27.1
3,CCOc1ccc(-c2nc(CSCC(=O)NCCCN3CCCC3=O)c(C)o2)cc1,16.8
4,O=C(c1cccc(S(=O)(=O)N2CCOCC2)c1)N1CCCC1,-5.77
5,CCCC(=O)Nc1nc(C)c(-c2csc(Nc3ccc(Cl)cc3)n2)s1,9.73
6,COc1ccc(OC)c(NC(=O)Cn2cc(C#N)c3cc(Br)ccc32)c1,7.75
7,COc1ccc(/C=C2\SC(c3ccc(C)cc3)=NC2=O)cc1OC,14.2
8,COC(=O)c1cnc2c(c1C(=O)OC)c(=O)n(C)c(=O)n2C,-5.08
9,CCN1CCN(c2ccc(NC(=O)c3ccc4c(c3)OCO4)cc2)CC1,-54.5
10,Cc1cc2oc(C(=O)Nc3ccc(S(=O)(=O)Nc4ncccn4)cc3)c(C)c2cc1Cl,17.5
11,COc1ccc(/C=N/n2c(C)nc3c([nH]c4ccccc43)c2=O)cc1CN1CCCC(C)(C)C1,-38.1
12,O=C(O)c1cc(-c2ccc(N3CCOCC3)cc2)nn1-c1ccccc1Cl,27.7
13,O=C1CCCN2N=C(SCC(=O)Nc3ccccc3C(F)(F)F)SC2=N1,7.76
14,O=C(c1ccc(F)cc1)N(Cc1ccco1)C1CCS(=O)(=O)C1 (stereo not shown),23.2
15,Cc1ccc(S(=O)(=O)N2CCOCC2)cc1C(=O)N1CCN(S(=O)(=O)c2cccs2)CC1,-16.3
16,CC(C)(C)C(=O)Nc1ccc2c(c1)OCCOCCOc1cc(NC(=O)C(C)(C)C)ccc1OCCOCCO2,-65.5
17,CCOc1ccccc1NC(=O)C(=O)NCC1CCCN1CC (stereo not shown),-39.1
18,Cn1c(/C(C#N)=C(\O)c2ccc([N+](=O)[O-])s2)nc2ccccc21,27.7
19,CC[C@H]1CC2CN3CCc4c([nH]c5c([C@H]6C[C@H]7[C@H](CC)CN(C)[C@@H](Cc8c6[nH]c6ccccc86)[C@H]7C(=O)OC)c(OC)ccc45)C(C(=O)OC)(C2)C13,-7.1
20,Cc1nn(CC(=O)N/N=C/c2ccc(F)cc2)c(C)c1[N+](=O)[O-],-9.59
21,O=C(COC(=O)C1=COCCO1)Nc1ccc(F)c(F)c1,-1.21
22,CCC(=O)N1CCN(c2c(Cl)cccc2[N+](=O)[O-])CC1,-13.5
23,COc1ccc(C)cc1NC(=O)NC(C)c1ccc2c(c1)OCO2 (stereo not shown),7.35
24,CCc1ccc(NC(=O)[C@H](C)NC(=O)C2CCN(C(=O)[C@@H](N)Cc3ccccc3)CC2)cc1,3.97
25,Cc1ccc(/C=C/C(=O)N2CCCN(C(=O)/C=C/c3ccc(C)cc3)CC2)cc1,-74.8
26,O=C(COc1ccc(S(=O)(=O)Nc2ccccc2)cc1)NCc1ccccn1,-2.45
27,NS(=O)(=O)c1c(Sc2ccccc2C(=O)O)ccc2ccccc12,28.4
28,CC(=O)C1=C(C)N(Cc2ccccc2)C(=O)N[C@@H]1c1cccc(C(F)(F)F)c1,2.66

row,SMILES,"hERG current change (%, negative = inhibition) at 10uM [%]"
1,COc1ccc(NC(=O)/C(=C\c2ccccc2)NC(=O)c2ccco2)cc1,0.0276
2,S=c1[nH]nc(-c2cc3ccccc3o2)n1Cc1ccccc1,11.4
3,O=C(O)C1=C[C@H](c2ccc(C(F)(F)F)cc2)C[C@H](OCc2ccc(CO)cc2)O1,21.5
4,CC(=O)NC(C)c1nc2ccccc2n1C(C)C (stereo not shown),-10.2
5,O=C(NCc1ccccn1)c1ccc([N+](=O)[O-])cc1,-29.1
6,COc1ccc(S(=O)(=O)NCCOc2ccccc2)cc1C,-3.36
7,COc1ccc(NC(=O)CCN2CCCCCC2)c(OC)c1.Cl,0.735
8,CCCNC(=O)c1nn2c(C(F)(F)F)cc(-c3ccccc3)nc2c1Br,15.9
9,COc1ccc(CC(=O)NNC2=Nc3cccc4cccc2c34)cc1OC,1.79
10,COc1cc2[nH]c(=O)n(Cc3ccccc3Cl)c(=O)c2cc1OC,-0.4
11,NC(=O)C(c1ccccc1)c1ncc(C(F)(F)F)cc1Cl (stereo not shown),4.88
12,Cc1cc2c(cc1C)NC(c1nc3ccccc3[nH]1)C1=C(CC(C)(C)CC1=O)N2 (stereo not shown),11.2
13,O=C(NCc1cccc(C(F)(F)F)c1)C1CCCN(c2cnccn2)C1 (stereo not shown),-61
14,O=C1CC(N2CCOCC2)C(=O)N1c1cccc(Cl)c1 (stereo not shown),1.18
15,COc1ccc(CNC(=O)C2CCCN2S(=O)(=O)c2ccc(Cl)cc2)cc1 (stereo not shown),-26.5
16,O=C(O)CP(=O)(O)c1ccc(Cl)cc1,-3.27
17,O=C(Nc1cccnc1Cl)c1cccnc1Cl,2.03
18,Cl.O=C(NC12CC3CC(CC(C3)C1)C2)c1ccc(=O)oc1,1.45
19,Cc1ccc(S(=O)(=O)N2CCC(=O)N(CCOCc3ccccc3)CC2)cc1,-6.26
20,COc1ccccc1N1C(=O)c2ccccc2NC1c1cc(OC)c(OC)c(OC)c1 (stereo not shown),5.13
21,COc1ccc2c(C)cc(SCC(=O)Nc3cc(C(N)=O)cc(C(N)=O)c3)nc2c1,2.44
22,COCCN1CCn2c(nc3cc(NC(C)=O)ccc32)C1,19.3
23,Cc1cc(C)nc(NC2=NCC(=O)N2c2cc(Cl)cc(Cl)c2)n1,-14.8
24,COC(=O)c1c(C(=O)OC)c(C)n(Cc2ccco2)c1C,-2.22
25,O=C(NNc1ccc(F)cc1F)c1c(F)cccc1Cl,16.8
26,Cc1ccc(N(CC(=O)O)S(C)(=O)=O)cc1,15
27,Clc1cccc(Cl)c1Cn1cnc2c(NCc3ccco3)ncnc21,-3.72
